According to publication PMC10726135:
The list shows a part of the results. At the low end of the ranking, values are background and their order means little. Measured with an extract: partners may take part in the binding.

biological target: T1, HNF4alpha2 (COS-7 nuclear extract) (UniProt P41235); experiment: protein-binding microarray; settings: COS-7 nuclear extract on double-stranded Agilent 4x180k PBM; binding buffer, salt, pH and temperature not given; high values mean tight binding; double strand, one strand shown; sequences stand for … in …GCCTAGGGAGATTAGAGTATCGGTCGA
T1 sequence: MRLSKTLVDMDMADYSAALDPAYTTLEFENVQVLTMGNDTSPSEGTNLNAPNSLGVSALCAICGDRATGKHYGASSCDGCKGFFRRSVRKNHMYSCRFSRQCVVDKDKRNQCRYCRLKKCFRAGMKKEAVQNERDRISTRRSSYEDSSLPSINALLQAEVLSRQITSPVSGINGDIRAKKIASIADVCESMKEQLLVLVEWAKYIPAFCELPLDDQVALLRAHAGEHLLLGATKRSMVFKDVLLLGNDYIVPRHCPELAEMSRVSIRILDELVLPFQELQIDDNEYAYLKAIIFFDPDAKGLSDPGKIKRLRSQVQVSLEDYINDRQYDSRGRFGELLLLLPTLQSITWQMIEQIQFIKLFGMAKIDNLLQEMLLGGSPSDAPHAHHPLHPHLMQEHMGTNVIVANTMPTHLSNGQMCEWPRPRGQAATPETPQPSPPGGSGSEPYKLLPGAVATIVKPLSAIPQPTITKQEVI

Sequence	binding signal (log2 normalized intensity)
CTGAAATAGGTAAGCTGGCCCGGGAAGAAG	-0.97
ATGATACGCCGGCCAATCCGGCTGGCAGCC	-1.28
GTAAACCCCAATCAGGTTTCTCAAGTGATC	1.7
GAATTCAAAGGTGCAAAGGTTAAAATGCCC	4.55
GCAGAGGCTGGAGCAGGCCATGTGCAGAGG	-1.08
AGGAGGAGAAGGGTGGGAATTGGGATAGCA	-1.13
AAGGTATGGAGCTAAACAATTAAAGAACTC	-1.13
ACCTGTGTGTGTAGGCATAGGAGAAACACA	0.788
AATGCGCCTGAACTGACTGCATTCCCTTTC	-1.2
TTCTTTTCCCAAACCACGTTTCTGTGGTCA	1.58
GGTCACTCTTGCTATGCCTTAGCAAACAGA	-1.22
GGTGCCAGAATTGCTGCTCCCCCTCCCAAA	4.9
ACCAGGCCGGGTCACGTGGGTCCAGGGTCA	2.83
CAGTATAGTTAGGGCCTTGCAGGGGGCCTC	-1.06
TACCCCCATACTTTATTTAGCTTTAGTTCA	1.64
AATGGAAGGCAGTGTTCCAAAGTGTAAAAG	0.989
CAAACAACAGGCATCAACTCTATCATACTC	-0.883
ACATTGTGTATGGACTGTAATACACAAGCA	-0.479
ACGGGCCTGAAAACTGGAGGCCGCGACAAG	-1.12
CTCAAAGTGCTTTTCAATCTTATTTTTACT	-1.17
GGTGTCCAGATTCCAGCCTCCTGCTCTGGG	-1.12
ACATGAGCCTCTTTATCTCTCTCTCTTTCT	0.898
AGTGACCCTGTCTCTCAGTCTCTGTGGGAG	1.25
AACAAGGATAGCGTCATCAGTCCAGGAGGG	-1.06

Sequence	binding signal (log2 normalized intensity)
TGGTCCTGGAACTCAAAGGTCAAATGACAG	3.85
AAACCAACCCTGCCAAAGGTTAAAATTCCC	0.747
GCATATGAGTAATGTGAAGACTTCGCTGGA	-1.03
GGAACACAATAGGAATTCAACCAATGTGGA	-0.925
ACCAGCAATTTTCAGGGTTAAAAGTTCTGC	0.779
GACTCATCTCCAAACGAGACTTTGGACTTT	8.97
CCGCAGCGCTGGTGGCTGCAAGGTTTGTGT	1.39
TCCCTGCAGTCAGGACTCTGGGACCGCAGG	-1.09
AAGGTCACCCGTATTCCTTAGCTTATCGTC	-0.0407
GGGCTGGGTAAAATGAGAATGAGACCTGCT	-1.03
TCCGTAACCTCACAGAAATCCAAAGGTCAA	4.75
TAATCTTCACTTGCCACATTTATTGTGAGA	1.52
GTCCAGGCCATGCAACAGCCTCCTCACTAG	-1.04
ATTTACATCAAACACTCACTGGGAGAGAAA	0.168
ATGCAGTGGGTCAGTCTGAGATAGTCATTC	0.63
CCCTTCCCCGCTCTCCCCGCCCCCTCTCCG	5.79
CTCATCCATGAATCCTGTGGTAGCCACTCT	-0.42
ACTTTGGCTACTCAGTTTTTTGGCCGTCTT	1.62
TGATAAAACAAATCTACAAATGTTTCAACA	-1.07
CCAAGGAGACACCCCTGCAGAAGCGGGAGA	-1.14
GAAGCGCACTAAGCCGAACGCTGGGGCAAA	-1.12
GAGACCCATTTTGGACTTTGACCTCCAAAA	10.7
TTCTCTCCCCCAACCCCACCTTCATTCTTC	4.27
TTCTCAAGGACCTAGAGCTATTCCTTTGAA	-1.18

Sequence	binding signal (log2 normalized intensity)
ATGTCATGACCTTCATCAATCAGCCTGATA	-1.1
TATCTGTTTATTTTGCAATTAACAAAGAGA	0.905
CACTGAGATAAAAATGGCCAAAGGTTGCCA	2.09
GAATTTCAGAAGCAGGTCAATAGGGCAGGG	2.1
GCAAACTATGTGAGGAATCTAAGATAAGCA	-0.971
CAGGCTGTTTTCCTATAGATTTGTTAAATC	1.13
ATCCAGAGGTCACCCAGAGCGTCCCACCTG	-1.12
GGAAGGGAGAGATAAGAAAAACTGAGCTTT	-1.17
TTGCAGAAGGCAGCCAAACAGAGGCTGAAA	-1.12
GTTCGATAAAAAACAATTTACAACCTGCTC	-1.19
AAGGTATCCTCCTAGAGTCCAAGGTATAAA	1.79
TTTCAACCCTGTGATGACCCCATACTTCAG	3.69
CTGTTGAACATTAACTCTCTGTGAGTGTGT	1.85
TAACAAACATTACTAACTGGACTTTATCTA	2.61
TGGAGGAGCTGAACTGTAACCTCAAAGGAG	-1.13
TTTGCCTGAACTTTAAACTGGTGTGTCTTG	2.67
GAAAGGGGCCTCAGAGAAAGCCTGTTTGCT	-1.22
TGAGGCCCCAGTGTCAATTCTCATTCATCC	-0.225
GTGGCTAGAACCCAGGCACAGGTCCTACTC	-1.22
TCGGCTTCATTAGCAAATAACAAAGGGCAC	3
AAAATAGCCAAAATAAAGCAGCAAACCAGA	-1.22
GGGAGATCTTCAGTAAGAGGATTTCTTCGC	-0.771
ATCAGCGTTGAGCCTTTTGTCCCAAGGAGA	1.05
AAAAGTCTCAGGGGCCTTGCAATGAGGCGA	-0.924

Sequence	binding signal (log2 normalized intensity)
GTGACTACCTGGTTAAAAGGACAACCTTCG	0.583
TCTTGACATCTCTCTCTGCAGCTGAGTAGA	-0.28
CAGAGCTGTCGTCCCAGGGCAAAGGTCACC	7.59
TCAGTTCCTATTTCAACATCCTCTCAGGTC	2.06
ACAGGAAAAAAAAAAATTACTGACCCTTGC	2.51
CTTTAAACTGGTGTGTCTTGCCTTTCCACC	0.291
CAGTGGCTGAGACAATGAGTGCTTCAGTCC	-0.213
CCAGATTCTCTCACTGCTCTGGCCACTCCC	-1.07
CTAGGCTCCAGGGCACTGCCCTTTGGAACC	6.71
CACACACCTGTGCAAACATTGGTTGCAAAA	-1.01
CCTGCAAGGATTGATCAGCACATGAAGGTC	1.23
CCTGCACCTGAACTTTGCTCTGTGACACAA	4.04
GAAGGCAGCCAAACAGAGGCTGAAATGGTT	-1.13
TCCCTCCGTGGGGCTCCTTTGATCTCCGTG	0.843
GGTATGTTTGTGATATTGTGAAATATATAT	2.03
TCTCTTTTAGGCTGTCAGCCACCAAAGCAG	-1.22
AACATTTTTGCAACATGAGGAGCCAAGTTT	0.767
GAGCATCCAGATAAAGCTGAAGAAAGCAGG	-1.17
CCAATGGCTAAGGTCACCATGACCATAAAC	-1.12
TCTGCAGACATGGACTCTGGGATCTCAGGG	1.24
CTGTGCCATGCTTTTCAGTGCAAGGGACCT	0.993
